Data published in the supplement of paper PMC4996465.

What was measured:
KB3-1 = test: viability (% of DMSO control); higher = more viable cells
Protocol: (§1)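 Eleven-dose screen of the NCATS MIPE 3 library on cells without co-treatment; CellTiter-Glo after 48 h, as % of DMSO wells.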

Nalm-6 = test: as above
Protocol: as §1

Compound	viability (KB3-1; 0.00078 µM) [%]	viability (KB3-1; 0.00234 µM) [%]	viability (KB3-1; 0.00702 µM) [%]	viability (KB3-1; 0.0211 µM) [%]	viability (KB3-1; 0.0632 µM) [%]	viability (KB3-1; 0.19 µM) [%]	viability (KB3-1; 0.569 µM) [%]	viability (KB3-1; 1.71 µM) [%]	viability (KB3-1; 5.12 µM) [%]	viability (KB3-1; 15.4 µM) [%]	viability (KB3-1; 46.1 µM) [%]	viability (Nalm-6; run: 1, 0.00078 µM) [%]	viability (Nalm-6; run: 1, 0.00234 µM) [%]	viability (Nalm-6; run: 1, 0.00702 µM) [%]	viability (Nalm-6; run: 1, 0.0211 µM) [%]	viability (Nalm-6; run: 1, 0.0632 µM) [%]	viability (Nalm-6; run: 1, 0.19 µM) [%]	viability (Nalm-6; run: 1, 0.569 µM) [%]	viability (Nalm-6; run: 1, 1.71 µM) [%]	viability (Nalm-6; run: 1, 5.12 µM) [%]	viability (Nalm-6; run: 1, 15.4 µM) [%]	viability (Nalm-6; run: 1, 46.1 µM) [%]	viability (Nalm-6; run: 2, 0.00078 µM) [%]	viability (Nalm-6; run: 2, 0.00234 µM) [%]	viability (Nalm-6; run: 2, 0.00702 µM) [%]	viability (Nalm-6; run: 2, 0.0211 µM) [%]	viability (Nalm-6; run: 2, 0.0632 µM) [%]	viability (Nalm-6; run: 2, 0.19 µM) [%]	viability (Nalm-6; run: 2, 0.569 µM) [%]	viability (Nalm-6; run: 2, 1.71 µM) [%]	viability (Nalm-6; run: 2, 5.12 µM) [%]	viability (Nalm-6; run: 2, 15.4 µM) [%]	viability (Nalm-6; run: 2, 46.1 µM) [%]
CCCc1nn(C)c2c(=O)[nH]c(-c3cc(S(=O)(=O)N4CCN(C)CC4)ccc3OCC)nc12.O=C(O)CC(O)(CC(=O)O)C(=O)O [Sildenafil citrate]	103	97.9	99.6	103	100	103	100	100	97.2	98.4	97.6	86.1	80.3	101	101	104	105	111	111	116	117	105	113	113	112	109	114	114	99.9	110	110	109	99.9
O=C(O)c1cc(/N=N/c2ccc(S(=O)(=O)Nc3ccccn3)cc2)ccc1O [Sulfasalazine]	98.2	97.4	99.7	98	103	103	98.8	99.7	101	96.5	98.4	97.6	105	98	98.9	107	103	104	118	112	110	107	110	111	100	108	104	101	105	112	104	106	106
C[C@@H]1CN(Cc2ccc(F)cc2)[C@@H](C)CN1C(=O)c1cc2c(C(=O)C(=O)N(C)C)cn(C)c2cc1Cl [Talmapimod]	108	98.2	103	107	108	101	105	92.3	104	103	42.8	114	110	106	121	109	100	114	108	91.3	98.2	79.6	102	102	99.4	101	104	105	103	99.1	92.4	94.5	70
CNC(=O)c1cc(COc2nnc(Nc3ccc(Cl)cc3)c3ccoc23)ccn1 [Telatinib]	100	101	103	102	100	102	101	104	102	105	67.8	97.9	103	107	108	99.4	118	110	118	95.6	115	35.4	103	111	111	107	101	113	106	106	104	102	8.59
C[C@@H]1CCN(C(=O)CC#N)C[C@@H]1N(C)c1ncnc2[nH]ccc12 [Tofacitinib]	99.6	107	102	99.9	93.9	98.9	93.8	94.8	92.6	93.3	91.1	112	118	114	121	123	128	123	118	110	110	82.8	111	106	106	113	108	112	112	107	110	109	111

Viability of KB3-1 and Nalm-6 cells after 48 h of drug alone (CellTiter-Glo), 11 doses over about 4.5 log units. % of DMSO wells, lower = more cell loss; AC50 from the fitted curve, lower = more potent. No active / inactive call. Nalm-6 was screened in two runs. AC50 is listed only for well-fitted inhibitory curves. KB3-1 is a HeLa-derived carcinoma line, Nalm-6 a B-cell precursor leukaemia line.
